Where “and” joins values, the source holds several entries; their conditions need not be identical. Identical values can stand only once. Counter-ions that a name gives are not always drawn.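 Five compound concentrations were applied to cells in 96-well plates for 48 hours; endpoints were derived by simple linear interpolation of the resulting dose-response curve. GI50 marks 50% less growth.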 Calls of active or inactive are those of the source. Cut-off read from the data, not from the text of the source: active = GI50 up to about 1.1 µM and inactive = higher.
Tested on: NCI-H322M
Assay: growth of human tumour cells (NCI), 48 h

SMILES | GI50
C=CCN(N=O)C(=O)N(CCC)CCCCC(NC(C)=O)C(=O)NCc1ccccc1 (centres undefined) | inactive: > 100 µM
Nc1ccc(CCN2CCN(c3cccc(C(F)(F)F)c3)CC2)cc1 | inactive: 39.4 µM
CN(c1ccc(C(=O)c2ccc(N(C)S(C)(=O)=O)cc2)cc1)S(C)(=O)=O | inactive: > 100 µM
Cc1ccc(S(=O)(=O)NC(=O)NC2=NC(C)(C)N(c3ccc(Cl)c(Cl)c3)C(N)=N2)cc1 | inactive: 6.67 µM
N#CC(C#N)=C1C(=O)NC(N)=C1C#N | inactive: > 100 µM
COCC12CCC(OC)C34C5CC6(O)C(OC)CC(OC(C)=O)(C5C6OC(=O)c5ccccc5)C(C(OC)C13)C4N(C)C2 (centres undefined) | inactive: > 100 µM
O=C1N(c2ccccc2)C(=O)C2(SC=NN2Cc2ccccc2)N1c1ccccc1 (centres undefined) | inactive: > 100 µM
CC(O)=NC(Cc1ccc2ccccc2c1)C(O)=NC(Cc1ccc(Cl)cc1)C(O)=NC(Cc1c[nH]c2ccccc12)C(O)=NC(CO)C(O)=NC(Cc1ccc(O)cc1)C(O)=NC(CCCN=C(N)N)C(O)=NC(CC(C)C)C(O)=NC(CCCN=C(N)N)C(=O)N1CCCC1C(O)=NC(C)C(=N)O (centres undefined) | inactive: 20.5 µM
COc1ccc2c(CCN)c(C(=O)O)[nH]c2c1 | inactive: > 100 µM
COC(=O)C(Cc1ccc2c(c1)CCCC2)Cc1cc2c(cc1C(O)OC)CCC2 (centres undefined) | inactive: > 100 µM
COc1cc2c(cc1OC)C(Cc1c3ccccc3cc3ccccc13)N(C)CC2 (centres undefined) | inactive: 20.9 µM
COc1ccc(CCCN2c3ccccc3Sc3ccccc32)cc1 | inactive: > 100 µM
COC1OC(COC(=O)NCCCCC(=O)C(F)(F)C(F)(F)C(F)(F)C(F)(F)C(F)(F)C(F)(F)C(F)(F)F)C(O)C(O)C1O (centres undefined) | inactive: 17.8 µM and inactive: 12.2 µM
COC(=O)c1ccc2c(c1)CC1(C2)Cc2cc3c(cc2C1=O)CCC3 (centres undefined) | inactive: 27 µM
CCOCc1cc(=O)c2c(O)cc3c(c2o1)CCC(C)(C)O3 | inactive: > 100 µM
Nc1ccn(C2OC(CO)C(O)C2O)c(=O)n1 (centres undefined) | inactive: 438 µM
O=[N+]([O-])c1ccc(C2=NOC(c3ccccc3)N2C23CC4CC(CC(C4)C2)C3)cc1 (centres undefined) | inactive: 43.3 µM
Cc1ccc(S(=O)(=O)N/N=c2\c(C)c(C3=NS(=O)(=O)c4cc(S(N)(=O)=O)c(Cl)cc4N3)oc3c(Cl)cc(Cl)cc23)cc1 | inactive: > 100 µM
O=C1/C(=C/c2cccc(O)c2)COc2ccccc21 | inactive: 16.8 µM
O/N=C1\CCc2cc3c(cc21)CCC3 | inactive: > 100 µM
Nc1ccc(C(=O)NN2C(=O)C(Cl)C2c2ccccc2O)cc1 (centres undefined) | inactive: 48.6 µM
Cc1cc(C)c2c(-c3ccccc3)cc(=O)[nH]c2c1 | inactive: > 100 µM

SMILES | GI50
CC1=C(C(=O)NNS(=O)(=O)c2ccc(C)cc2)CC(C(=O)NNS(=O)(=O)c2ccc(C)cc2)=C(C)N1 | inactive: > 100 µM
CC1=C(C#N)C(=O)N(/N=C/c2ccc(Cl)cc2)C(=O)/C1=c1\o/c(=C2/C(=O)N(/N=C/c3ccc(Cl)cc3)C(=O)C(C#N)=C2C)c2nccnc12 | inactive: > 100 µM
C1C[N+]23CCC[N+]2(C1)CCC3 (centres undefined) | inactive: > 100 µM
CNc1nc(N)cc(O)n1 | inactive: > 100 µM
O=C(O)c1c(CC(Cc2ccc3c(c2)CCCC3)C(=O)O)ccc2c1CCCC2 (centres undefined) | inactive: > 100 µM
N#CC(c1ccc(Cl)cc1)c1cccc(C(C#N)c2ccc(Cl)cc2)n1 (centres undefined) | inactive: 51.2 µM
COc1cc2c(=O)cnoc2cc1O | inactive: > 100 µM
Cc1[nH]nc(-c2ccon2)c1N=O | inactive: 80 µM
Cn1c2ccccc2n2c(=O)c(-c3ccc(Cl)cc3)nnc12 | inactive: > 100 µM
COc1ccc(/N=N/c2c(C)c(C#N)c(=S)n(C3OC(CO)C(O)C(O)C3O)c2C)cc1 (centres undefined) | inactive: > 100 µM
Oc1ccc2c(c1)OCC(O)(c1ccccc1O)C2 (centres undefined) | inactive: > 100 µM
N#CSCc1nc2ccc(Cl)cc2c(-c2ccccc2)[n+]1[O-] | inactive: > 100 µM
NCCCNCCCCNCCCN [SPERMINE TETRAHYDROCHLORIDE] | inactive: > 100 µM
CC(=O)OCc1nc(C#N)c(N)o1 | inactive: > 100 µM
O=C(O)CCNS(=O)(=O)c1ccc2ccccc2c1 | inactive: > 100 µM
CC1=NN(C(=O)c2ccc([N+](=O)[O-])cc2)C(=O)C1/N=N/c1ccccc1C(=O)O (centres undefined) | inactive: > 100 µM
CC1CC(=O)N2CCCNC2=C1C#N (centres undefined) | inactive: > 100 µM
Cc1c(O)c(OC2OC(CO)C(O)C(O)C2O)cc2c1CC[C@@H]1C2(C)C(=O)C[C@]2(C)[C@@H]([C@@](C)(O)C3CCC(C)(C)O3)[C@H](O)C[C@@]12C (some centres undefined) | inactive: > 100 µM
O=C(O)[C@@H]1NC[C@H]2C(Br)=NO[C@H]21 | inactive: > 100 µM
CCOC(OCC)c1ccc(/C=C/c2cc(OC)c(OC)c(OC)c2)cc1 | inactive: 41.7 µM
CCCCCCCCC(O)C#CC(N)=O (centres undefined) | inactive: 13.5 µM
Cc1nc2ccc(F)cc2c2c1CCN2c1ccc(Cl)cc1 | inactive: 11.2 µM

SMILES | GI50
CC(C)C1N(C)c2ccc(Cl)cc2[C@H]2c3ccccc3CCN12 (some centres undefined) | inactive: 84.1 µM
COc1nc(C#CC(C)(C)C)nc(OC)n1 | inactive: 23.5 µM
O=C(CCC(=O)Nc1ccc(Cl)c(Cl)c1)Cc1nc2ccccc2o1 | inactive: > 100 µM
COC(=O)C1C(O)C(C)C(O)OC1C(C)C(O)C(C)/C=C\C=C(/C)C(=O)Nc1c(C)c(OC(C)=O)c2c(c1O)C(=O)C(C)=C1OCOC(/C(C)=C/C(C)=O)=C12 (centres undefined) | inactive: 13 µM
C[C@H](c1ccccc1)N1C(=O)[C@@H](OCc2ccccc2)[C@H]1[C@H](COC(=O)COCc1ccccc1)OCc1ccccc1 | inactive: > 100 µM
CCOC(=O)NC(Nc1cccc(C(F)(F)F)c1)(C(F)(F)F)C(F)(F)F | inactive: > 100 µM
CC(=O)NC(CCC(=O)C=[N+]=[N-])C(=O)O (centres undefined) | inactive: > 100 µM
COC(=O)C(=O)C(C(=O)C(=O)Nc1ccccc1[N+](=O)[O-])c1nc2ccc([N+](=O)[O-])cc2nc1O (centres undefined) | inactive: > 100 µM
N#CCCC(C#N)(C#N)CCC#N | inactive: > 100 µM
O=C(/N=C1\SCCN1C(=O)C(C(F)(F)F)C(F)(F)F)C(C(F)(F)F)C(F)(F)F | inactive: > 100 µM
C=C(/C=C/C=C(\CO)CCC=C(C)C)[C@H]1CCC2([C@H](CCCO)/C(=C(/C)C=O)CC[C@]2(C)O)[C@H]1O (some centres undefined) | inactive: > 100 µM
Nc1ccccc1.O=C(O)C(C(F)(F)F)C(F)(F)F | inactive: 53.8 µM
Clc1cc2c(cc1Cl)CC(NCCN1CCCC1)CC2 (centres undefined) | inactive: 15.3 µM
O=c1c2cccc3cccc(c4oc5c6cccc7cccc(c(=O)c5c14)c76)c32 | inactive: 24.5 µM
Cn1c(=O)c2[nH]c(/N=N/N3CCN(CCO)CC3)nc2n(C)c1=O | inactive: > 100 µM
Cc1cc(C)c(-n2c(-c3ccc(Br)cc3)cs/c2=N\N=C2C=C(C(C)(C)C)C(=O)C(C(C)(C)C)=C2)c(C)c1 | inactive: > 100 µM
CCCCCCCCCCCCCCCCCc1cccc(OCOCCOC)c1C(=O)O | inactive: 20 µM
CCN(C(=S)N[C@H](C(=O)N[C@@H](C)C(=O)OC)C(C)C)c1ccccc1 | inactive: > 100 µM
NC(=O)/C(=C\c1ccncc1)c1cccc2ccccc12 | inactive: > 100 µM
COC(=O)/C=C1\CCCN1CCc1cc2c(cc1CC#N)OCO2 | inactive: 45.7 µM

From ChEMBL document CHEMBL1201862, “PubChem BioAssay data set” (2004)
